From patent US20220273768A1 (The George Washington University, priority 2019, published 2022)

Tested on: LepR^b expressing pheochromocytoma PC12 (PC12^LEPRb) cells, Trpm7 current
Assay: Perforated-patch recording of non-selective cation (Trpm7) current in PC12^LEPRb cells
Settings: leptin + FTY720 (3 μM)

CCCCCCCCc1ccc(CCC(N)(CO)CO)cc1 [FTY720]
leptin-activated non-selective cation channel current: completely blocked
